“And” between values parts separate entries of the source, which are not always exact repeats. Equal values may be shown once. The shares of active, inactive and inconclusive entries below differ from those in the screen. Potencies of inconclusive entries are doubtful fits and often do not repeat. The source made the active and inactive calls. Calls come from the whole dose curve; as a rule, active = well fitted curve in the direction sought with a large enough effect; inconclusive = small, poorly fitted or top-dose-only effect, or another doubt; inactive = no such curve, though single readings can be large; an effect the other way counts as inactive or inconclusive.
Legend:
[1] = Viability qHTS for spleen associated tyrosine kinase inhibitor (SYKi) naive MV4-11 cells (AID 1963823); note: nearly all actives have a fitted effect of over 40% in size
Outline: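 CellTiter-Glo luminescence, 10 min room-temperature incubation, gave viability. Cells: naive MV4-11 (500/well), treated 72 hr at 37 C, 5% CO2.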

[2] = Viability qHTS for spleen associated tyrosine kinase inhibitor (SYKi) drug resistant MV4-11 cells (AID 1963824); note: nearly all actives have a fitted effect of over 35% in size
Outline: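 SYK-inhibitor-resistant MV4-11 AML cells were seeded at 500 per well onto compound and cultured 72 hours (37 °C, 5% CO2). CellTiter-Glo was then added, and after 10 min at room temperature, luminescence gave viability.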

[3] = Cellular viability qHTS for adrenocortical cancer (ACC) cell line NCI-H295R (AID 1963990); settings: CellTiter-Glo ATP luminescence, 48 h; activity change, negative = viability loss: at 46.1 µM (top of the series); note: nearly all actives have a fitted effect of over 60% in size;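 for activity change, negative = viability loss: 0% = DMSO only wells and -100% = full killing with cytotoxic reference compound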
Outline: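 Readout: CellTiter-Glo luminescence, 20 min RT. Exposure: 48 h, 37C/5% CO2. Cells: NCI-H295R, ITS-DMEM serum-free. Range: up to 46 uM. Analysis: 4PL fit, IC50 plus efficacy.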

[4] = Cellular viability qHTS for adrenocortical cancer (ACC) cell line SW-13 (AID 1963989); settings: SW-13 ACC cells viability, CellTiter-Glo, 48 h; activity (max response): stronger effect = lower value; note: nearly all actives have a fitted effect of over 65% in size;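 for activity (max response): cells grown in serum-free medium with ITS supplement; % is set by controls: 0 for no effect and ±100 for the full control effect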
Outline: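 Compound titrations (up to 46 uM final, in DMSO) were applied to SW-13 cells for 48 h at 37C/5% CO2. Reading used CellTiter-Glo after 20 min at room temperature; fitted curves yielded IC50 and efficacy.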
Potency is the fitted concentration of half-maximal effect; tags give direction and shape of the fitted curve.

For `OCCOc1ccccc1`, the Potency [1] was inconclusive: 0.0019 µM [rising, full curve, poor fit], the Potency [2] was “inactive” and the Potency [3] was “inactive”.

With `CCc1cc(OC)c(C[C@H](C)N)cc1OC` the Potency [1] was inconclusive: 40 µM [cytotoxic, partial curve], the Potency [2] was inconclusive: 44.9 µM [cytotoxic, single point] and the Potency [4] was inconclusive: 44.7 µM [cytotoxic, single point]. For the same compound, the Potency [3] was inconclusive: 63.1 µM [cytotoxic, single point].

In the case of `Nc1ccccc1C(=O)OCC(O)CO` (stereo not drawn), the Potency [1] was inconclusive: 0.0053 µM [cytotoxic, full curve, poor fit], the Potency [2] was “inactive” and the activity (max response) [4] was inactive: 6.9%. For the same compound, the Potency [3] was inconclusive: 3.66 µM [cytotoxic, partial curve, poor fit].

With `CCCCCCC(C)(C)c1cc(O)c2c(c1)OC(C)(C)C1CC=C(CO)C[C@H]21` (stereo partly drawn) the Potency [1] was active: 1.18 µM, the Potency [2] was active: 1.66 µM and the Potency [4] was inconclusive: 35.5 µM [cytotoxic, single point]. The Potency [3] was inconclusive: 31.6 µM [cytotoxic, single point].

With `O=C(Nc1ccccc1-c1ccc(Cl)cc1)c1cccnc1Cl` the Potency [1] was inconclusive: 13.7 µM [cytotoxic, partial curve], the Potency [2] was inconclusive: 21.7 µM [cytotoxic, partial curve] and the Potency [3] was inconclusive: 1.58 µM [cytotoxic, full curve, poor fit].

With `Cn1c(CCCCCCC(=O)NO)nc2cc(N(CCCl)CCCl)ccc21` the Potency [1] was inconclusive: 2.35 µM [cytotoxic, full curve, poor fit], the Potency [2] was inconclusive: 1.86 µM [cytotoxic, full curve, poor fit] and the Potency [4] was active: 15.8 µM. For the same compound, the Potency [3] was active: 8.91 µM.

For `Clc1ccc(CSC(Cn2ccnc2)c2ccc(Cl)cc2Cl)cc1` (stereo not drawn), the Potency [1] was inconclusive: 5.31 µM [cytotoxic, partial curve, poor fit], the Potency [2] was inconclusive: 2.66 µM [cytotoxic, partial curve, poor fit] and the Potency [4] was active: 8.2 µM. The Potency [3] was active: 4.11 µM.

With `CC(C)c1c(CN(C)C(C)Cc2ccccc2)n(C)n(-c2ccccc2)c1=O` (stereo not drawn) the Potency [1] was inconclusive: 4.22 µM [cytotoxic, full curve], the Potency [2] was inconclusive: 2.66 µM [cytotoxic, full curve] and the Potency [3] was “inactive”.

With `Nc1ccc(Cl)cc1N` the Potency [1] was inconclusive: 0.0043 µM [rising, full curve, poor fit], the Potency [2] was inconclusive: 0.0043 µM [rising, full curve] and the Potency [4] was inconclusive: 5.01 µM [cytotoxic, full curve]. For the same compound, the Potency [3] was inconclusive: 7.08 µM [cytotoxic, full curve].

In the case of `CCN(CC)Cc1nccn1-c1ccc([N+](=O)[O-])cc1C(=O)c1ccccc1Cl`, the Potency [1] was inconclusive: 5.96 µM [cytotoxic, partial curve, poor fit], the Potency [2] was inconclusive: 33.5 µM [cytotoxic, single point] and the activity (max response) [4] was inactive: -3.26%. For the same compound, the Potency [3] was inconclusive: 18.4 µM [cytotoxic, single point].

In the case of `C/C=C(\C)C(=O)N[C@@H](c1ccccc1)[C@@H](O)C(=O)O[C@H]1C[C@@]2(O)[C@@H](OC(=O)c3ccccc3)[C@@H]3[C@]4(OC(C)=O)CO[C@@H]4C[C@H](O)[C@@]3(C)C(=O)[C@H](OC(C)=O)C(=C1C)C2(C)C`, the Potency [1] was active: 0.0209 µM, the Potency [2] was active: 0.0235 µM and the Potency [4] was inconclusive: 0.0631 µM [cytotoxic, full curve, poor fit]. For the same compound, the Potency [3] was active: 0.891 µM.

For `CC[N+]1(C)CCCC(OC(=O)C(O)(c2ccccc2)c2ccccc2)C1` (stereo not drawn), the Potency [1] was inconclusive: 26.6 µM [cytotoxic, single point], the Potency [2] was “inactive” and the Potency [3] was “inactive”.

In the case of `COc1cc2cc(c1Cl)N(C)C(=O)C[C@H](OC(=O)C(C)C)[C@]1(C)O[C@@H]1[C@H](C)[C@@H]1C[C@@](O)(NC(=O)O1)[C@H](OC)/C=C/C=C(\C)C2`, the Potency [1] was “inactive”, the Potency [2] was “inactive” and the activity (max response) [4] was inconclusive: -79.6%. For the same compound, the activity change, negative = viability loss [3] was inconclusive: -83.6%.

In the case of `O=C(O)CCCOc1ccc(Cl)cc1Cl`, the Potency [1] was inconclusive: 22.1 µM [cytotoxic, partial curve, poor fit], the Potency [2] was inconclusive: 0.0018 µM [rising, full curve, poor fit] and the Potency [3] was inconclusive: 22.4 µM [cytotoxic, partial curve].

With `CC(C)Oc1cccc(NC(=O)c2ccccc2C(F)(F)F)c1` the Potency [1] was inconclusive: 0.0019 µM [rising, full curve], the Potency [2] was inconclusive: 21.7 µM [cytotoxic, partial curve] and the Potency [4] was inconclusive: 35.5 µM [cytotoxic, single point]. For the same compound, the Potency [3] was inconclusive: 28.2 µM [cytotoxic, single point].

For `ClC1=C(Cl)C2(Cl)C(CBr)CC1(Cl)C2(Cl)Cl` (stereo not drawn), the Potency [1] was “inactive”, the Potency [2] was “inactive” and the Potency [3] was “inactive”.

With `ClCCCN1CCN(c2cccc(Cl)c2)CC1` the Potency [1] was inconclusive: 0.668 µM [rising, full curve, poor fit], the Potency [2] was inconclusive: 0.841 µM [rising, full curve, poor fit] and the activity (max response) [4] was inactive: -6.01%. The Potency [3] was inconclusive: 29.1 µM [cytotoxic, single point].

With `CCOC(=O)C(c1c(O)c2ccccc2oc1=O)c1c(O)c2ccccc2oc1=O` the Potency [1] was inconclusive: 0.0024 µM [rising, full curve, poor fit], the Potency [2] was inconclusive: 0.0033 µM [rising, full curve, poor fit] and the activity (max response) [4] was inactive: 16.4%. For the same compound, the Potency [3] was “inactive”.

For `O=c1oc2ccccc2c(O)c1Cc1c(O)c2ccccc2oc1=O`, the Potency [1] was inconclusive: 26.6 µM [cytotoxic, single point], the Potency [2] was inconclusive: 26.6 µM [cytotoxic, single point] and the Potency [4] was inconclusive: 18.4 µM [cytotoxic, single point]. For the same compound, the Potency [3] was inconclusive: 18.4 µM [cytotoxic, single point].

With `c1ccc2c(c1)Nc1ccccc1S2` the Potency [1] was inconclusive: 19.3 µM [cytotoxic, partial curve], the Potency [2] was inconclusive: 24.3 µM [cytotoxic, partial curve] and inactive and the Potency [4] was inconclusive: 31.6 µM [cytotoxic, partial curve, poor fit]. For the same compound, the Potency [3] was inconclusive: 20 µM [cytotoxic, partial curve, poor fit] and inconclusive: 29.1 µM [cytotoxic, single point].

With `CC(C(O)c1ccccc1)N(C)C/C=C/c1ccccc1` (stereo not drawn) the Potency [1] was inconclusive: 16.8 µM [cytotoxic, partial curve], the Potency [2] was inconclusive: 13.3 µM [cytotoxic, partial curve] and the activity (max response) [4] was inactive: -14.5%. For the same compound, the Potency [3] was “inactive”.

With `CCC(=O)C(CC(C)N(C)C)(c1ccccc1)c1ccccc1` (stereo not drawn) the Potency [1] was inconclusive: 19.5 µM [cytotoxic, partial curve, poor fit], the Potency [2] was inconclusive: 30.9 µM [cytotoxic, partial curve] and the Potency [4] was inconclusive: 39.8 µM [cytotoxic, single point]. For the same compound, the Potency [3] was inconclusive: 56.2 µM [cytotoxic, single point].

With `c1ccc2nc(N3CCNCC3)ccc2c1` the Potency [1] was inconclusive: 26.6 µM [cytotoxic, single point], the Potency [2] was “inactive” and the Potency [3] was “inactive”.

In the case of `O=[N+]([O-])c1ccc([As](=O)(O)O)cc1`, the Potency [1] was inconclusive: 10.6 µM [cytotoxic, partial curve], the Potency [2] was inconclusive: 13.3 µM [cytotoxic, partial curve] and the Potency [3] was “inactive”.

In the case of `O=C(O)c1ccc(=O)[nH]c1`, the Potency [1] was “inactive”, the Potency [2] was “inactive” and the Potency [3] was “inactive”.

With `Fc1cc(Br)ccc1CBr` the Potency [1] was inconclusive: 33.5 µM [cytotoxic, single point], the Potency [2] was inconclusive: 21.1 µM [cytotoxic, single point] and the Potency [3] was “inactive”.

With `CCC(COC(=O)c1cc(OC)c(OC)c(OC)c1)(c1ccccc1)N(C)C` (stereo not drawn) the Potency [1] was inconclusive: 0.335 µM [rising, full curve, poor fit], the Potency [2] was inconclusive: 0.119 µM [rising, full curve, poor fit] and the Potency [3] was inconclusive: 29.1 µM [cytotoxic, single point].

With `CC(C)(C)C(O)C(Oc1ccc(Cl)cc1)n1cncn1` (stereo not drawn) the Potency [1] was inconclusive: 24.3 µM [cytotoxic, partial curve], the Potency [2] was active: 21.7 µM and the Potency [3] was inconclusive: 7.94 µM [cytotoxic, full curve, poor fit].

With `CNC(=O)Oc1cccc2ccccc12` the Potency [1] was “inactive”, the Potency [2] was inconclusive: 4.73 µM [cytotoxic, full curve, poor fit] and the Potency [3] was “inactive”.

In the case of `O=[N+]([O-])c1c(Cl)c(Cl)cc(Cl)c1Cl`, the Potency [1] was inconclusive: 0.0024 µM [rising, full curve, poor fit], the Potency [2] was inconclusive: 0.0017 µM [rising, full curve, poor fit] and the Potency [3] was inconclusive: 56.2 µM [cytotoxic, partial curve, poor fit].

In the case of `CN[C@@H](C)[C@H](O)c1ccccc1`, the Potency [1] was “inactive”, the Potency [2] was “inactive” and the Potency [3] was “inactive”.

With `NNc1ccccc1` the Potency [1] was “inactive”, the Potency [2] was “inactive” and the Potency [3] was inconclusive: 32.6 µM [cytotoxic, single point].

For `Nc1ccc(N=Nc2ccccc2)cc1`, the Potency [1] was inconclusive: 19.3 µM [cytotoxic, partial curve], the Potency [2] was inconclusive: 19.3 µM [cytotoxic, partial curve] and the Potency [3] was inconclusive: 31.6 µM [cytotoxic, single point].

For `C#C[C@]1(O)C=C[C@H]2[C@@H]3CCC4=CC(=O)CC[C@@H]4[C@H]3CC[C@@]21CC`, the Potency [1] was “inactive and inconclusive: 20.9 µM [cytotoxic, partial curve]”, the Potency [2] was inconclusive: 26.6 µM [cytotoxic, single point] and inconclusive: 20.9 µM [cytotoxic, partial curve, poor fit] and the Potency [3] was inconclusive: 16.4 µM [cytotoxic, partial curve, poor fit] and inconclusive: 35.5 µM [cytotoxic, single point].
